The text below walks through data of PMC3709894.

Where a chain is given by its changes, count along the chain named. No constants are given. Whether binding was seen depends on the method and setting. In cells and extracts the contact can be indirect. Some entries that bind do so weakly or less than the wild type. For part of these data: Sequences can lack the tags named with a protein.

Experiment [1] addresses T1, Myc-Rad21 TM (L385A F389A T390A) in pCS2MT (human) (UniProt O60216).
T1 sequence: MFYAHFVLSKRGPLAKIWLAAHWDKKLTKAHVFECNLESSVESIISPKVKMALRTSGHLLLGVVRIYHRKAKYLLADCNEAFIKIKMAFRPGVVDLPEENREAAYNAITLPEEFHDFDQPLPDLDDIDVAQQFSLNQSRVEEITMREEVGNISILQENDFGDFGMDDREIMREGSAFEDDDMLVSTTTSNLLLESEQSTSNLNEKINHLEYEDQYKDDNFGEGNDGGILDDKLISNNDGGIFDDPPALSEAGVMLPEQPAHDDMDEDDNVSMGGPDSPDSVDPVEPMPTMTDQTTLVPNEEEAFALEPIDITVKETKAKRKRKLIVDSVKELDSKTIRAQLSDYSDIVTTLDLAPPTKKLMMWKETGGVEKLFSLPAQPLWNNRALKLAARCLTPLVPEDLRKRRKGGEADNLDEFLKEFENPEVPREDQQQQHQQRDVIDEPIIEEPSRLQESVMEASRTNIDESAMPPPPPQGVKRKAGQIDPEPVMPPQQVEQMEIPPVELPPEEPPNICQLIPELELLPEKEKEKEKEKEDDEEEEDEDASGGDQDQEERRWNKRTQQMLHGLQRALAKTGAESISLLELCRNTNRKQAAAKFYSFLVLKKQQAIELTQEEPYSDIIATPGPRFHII
Description: co-IP; 293 T cells transfected with Myc-Rad21 WT or mutants; IP from whole cell lysate, blots of endogenous cohesin subunits including endogenous Rad21.

Experiment [2] addresses T2, Myc-Rad21 Del (del(383–392 aa)) in pCS2MT (human) (UniProt O60216).
T2 sequence: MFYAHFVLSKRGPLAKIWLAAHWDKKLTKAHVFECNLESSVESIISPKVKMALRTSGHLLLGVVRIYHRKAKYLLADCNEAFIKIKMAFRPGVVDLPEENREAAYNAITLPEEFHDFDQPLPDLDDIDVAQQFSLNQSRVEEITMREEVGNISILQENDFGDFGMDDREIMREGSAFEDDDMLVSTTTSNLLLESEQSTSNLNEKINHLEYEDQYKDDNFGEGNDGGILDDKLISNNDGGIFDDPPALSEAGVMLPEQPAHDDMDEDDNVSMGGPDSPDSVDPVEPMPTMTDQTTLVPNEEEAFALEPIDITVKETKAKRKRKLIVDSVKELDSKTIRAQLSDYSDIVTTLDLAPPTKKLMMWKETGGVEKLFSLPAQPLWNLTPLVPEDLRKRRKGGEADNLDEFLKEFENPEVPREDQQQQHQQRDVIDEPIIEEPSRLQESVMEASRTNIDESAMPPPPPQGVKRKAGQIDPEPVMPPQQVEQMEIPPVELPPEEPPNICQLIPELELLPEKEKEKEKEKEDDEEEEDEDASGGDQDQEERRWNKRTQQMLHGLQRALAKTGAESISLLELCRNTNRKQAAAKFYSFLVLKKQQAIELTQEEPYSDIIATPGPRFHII
The description is as above.

Experiment [3] addresses T3, Myc-Rad21 WT in pCS2MT (human) (UniProt O60216).
T3 sequence: T1 sequence with A385L, A389F, A390T
The experiment is described as above.

Experiment [4] addresses T4, N-terminal fragment (1–172 aa) of Rad21 (Rad21 NT), expressed in 293 T cells (human) (UniProt O60216).
T4 sequence: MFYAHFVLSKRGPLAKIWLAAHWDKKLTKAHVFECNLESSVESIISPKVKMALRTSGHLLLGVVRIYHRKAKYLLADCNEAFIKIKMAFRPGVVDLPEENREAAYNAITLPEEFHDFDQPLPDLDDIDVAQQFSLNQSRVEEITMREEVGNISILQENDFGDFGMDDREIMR
Description: co-IP; 293 T cells transfected with differently tagged (Flag, HA) Rad21 NT, MP or CT fragments; IP from cell lysates 40 h after transfection; blots of the other copy and of endogenous proteins.

Experiment [5] deals with T5, middle part (173–450 aa) of Rad21 (Rad21 MP), expressed in 293 T cells (human) (UniProt O60216).
T5 sequence: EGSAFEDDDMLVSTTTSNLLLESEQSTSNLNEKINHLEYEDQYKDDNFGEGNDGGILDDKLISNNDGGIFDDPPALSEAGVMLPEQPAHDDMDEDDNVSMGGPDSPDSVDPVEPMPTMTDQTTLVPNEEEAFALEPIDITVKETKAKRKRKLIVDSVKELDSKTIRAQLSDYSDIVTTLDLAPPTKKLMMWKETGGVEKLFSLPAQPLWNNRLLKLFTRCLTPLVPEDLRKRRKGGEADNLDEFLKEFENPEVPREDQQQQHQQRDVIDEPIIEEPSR
Described as above.

The target in experiment [6] is T6, Flag-Rad21 triple mutant (TM) L385A F389A T390A (human) (UniProt O60216).
T6 sequence: T1 sequence
Description: co-IP; 293 T cells transfected with pFlag CMV2 Rad21 constructs; IP of Flag-Rad21 (Flag mAb agarose beads) from whole cell lysate, blots of endogenous cohesin subunits and associated proteins.

B1: endogenous Smc1 (protein, UniProt Q14683 1-1233)
chain: MGFLKLIEIENFKSYKGRQIIGPFQRFTAIIGPNGSGKSNLMDAISFVLGEKTSNLRVKTLRDLIHGAPVGKPAANRAFVSMVYSEEGAEDRTFARVIVGGSSEYKINNKVVQLHEYSEELEKLGILIKARNFLVFQGAVESIAMKNPKERTALFEEISRSGELAQEYDKRKKEMVKAEEDTQFNYHRKKNIAAERKEAKQEKEEADRYQRLKDEVVRAQVQLQLFKLYHNEVEIEKLNKELASKNKEIEKDKKRMDKVEDELKEKKKELGKMMREQQQIEKEIKEKDSELNQKRPQYIKAKENTSHKIKKLEAAKKSLQNAQKHYKKRKGDMDELEKEMLSVEKARQEFEERMEEESQSQGRDLTLEENQVKKYHRLKEEASKRAATLAQELEKFNRDQKADQDRLDLEERKKVETEAKIKQKLREIEENQKRIEKLEEYITTSKQSLEEQKKLEGELTEEVEMAKRRIDEINKELNQVMEQLGDARIDRQESSRQQRKAEIMESIKRLYPGSVYGRLIDLCQPTQKKYQIAVTKVLGKNMDAIIVDSEKTGRDCIQYIKEQRGEPETFLPLDYLEVKPTDEKLRELKGAKLVIDVIRYEPPHIKKALQYACGNALVCDNVEDARRIAFGGHQRHKTVALDGTLFQKSGVISGGASDLKAKARRWDEKAVDKLKEKKERLTEELKEQMKAKRKEAELRQVQSQAHGLQMRLKYSQSDLEQTKTRHLALNLQEKSKLESELANFGPRINDIKRIIQSREREMKDLKEKMNQVEDEVFEEFCREIGVRNIREFEEEKVKRQNEIAKKRLEFENQKTRLGIQLDFEKNQLKEDQDKVHMWEQTVKKDENEIEKLKKEEQRHMKIIDETMAQLQDLKNQHLAKKSEVNDKNHEMEEIRKKLGGANKEMTHLQKEVTAIETKLEQKRSDRHNLLQACKMQDIKLPLSKGTMDDISQEEGSSQGEDSVSGSQRISSIYAREALIEIDYGDLCEDLKDAQAEEEIKQEMNTLQQKLNEQQSVLQRIAAPNMKAMEKLESVRDKFQETSDEFEAARKRAKKAKQAFEQIKKERFDRFNACFESVATNIDEIYKALSRNSSAQAFLGPENPEEPYLDGINYNCVAPGKRFRPMDNLSGGEKTVAALALLFAIHSYKPAPFFVLDEIDAALDNTNIGKVANYIKEQSTCNFQAIVISLKEEFYTKAESLIGVYPEQGDCVISKVLTFDLTKYPDANPNPNEQ
As to B1, the binding entry in experiment [1] is given as “binds”; in experiment [2], “binds”; in experiment [3], “binds”; in experiment [4], “no binding”; in experiment [5] it was “no binding”; in experiment [6], “binds”.
